# Measurements taken from PubChem BioAssay AID2101 (National Center for Advancing Translational Sciences (NCATS), 2009).
# Out of some 330,000 compounds screened, about 300 (0.091%) were called active. The shares of active, inactive and inconclusive entries below differ from those in the screen. Calls come from the whole dose curve; as a rule, active = well fitted inhibition curve with a large enough effect; inconclusive = small, poorly fitted or top-dose-only effect, or effect the other way, or another doubt; inactive = no such curve, though single readings can be large or run the other way. No potency is given beside an inconclusive call; the fits are too rough.
# Biological target: Lysosomal acid glucosylceramidase (Homo sapiens) (UniProt P04062)
# Assay: qHTS Assay for Inhibitors and Activators of N370S glucocerebrosidase as a Potential Chaperone Treatment of Gaucher Disease;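 for activity change, negative = inhibition: 0% = full enzyme activity and -100% = no enzyme basal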
# Details: N370S GC spleen homogenate, 4MU-glucoside fluorescence; activity change, negative = inhibition: at 59.4 µM (top of the series) unless noted
# Potency is the fitted concentration of half-maximal effect.
Compound,Potency,"activity change, negative = inhibition"
CCOc1ccc2nc(NCCNC(=O)Nc3ccccc3)c(C#N)cc2c1,inactive,–
CCC(C)c1ccc(NC(=S)NCc2ccccc2OC)cc1 (stereo unspecified),inactive,–
CCOC(CCNC(=O)c1cn(CCOC)c(=O)c2c1c1ccccc1n2C)OCC,"inconclusive [activator, partial curve]",–
CC(=O)c1ccccc1NC(=O)COC(=O)/C=C/c1ccc(C)o1,"inconclusive [activator, single point]",–
FC(F)(F)c1nnc2ccc(N3CCCCCC3)nn12,"inconclusive [activator, partial curve]",–
CC(=O)c1ccc(N(C(=O)CNC(=O)c2ccco2)C(C(=O)NC2CCCC2)c2ccncc2)cc1 (stereo unspecified),inactive,–
COc1ccc(C(CNC(=O)COc2ccc(-c3ccccc3)cc2)N2CCOCC2)cc1 (stereo unspecified),–,inconclusive: 33.8% [activator]
CCn1c(SCC(=O)Nc2ccc(OC)cc2)nc2nc3c(cc2c1=O)CCCC3,"inconclusive [activator, partial curve]",–
CCN1C(=O)c2cccc3c(S(=O)(=O)Nc4ccccc4)ccc1c23,"inconclusive [activator, single point]",–
O=C1Nc2ccccc2N(O)N1c1cc(-c2ccccc2Cl)no1,inactive,–
CC(C)(C)OC(=O)N[C@@H](CCCCNC(=O)OCc1ccccc1)c1nnc([C@H](CCCCNC(=O)OCc2ccccc2)NC(=O)OC(C)(C)C)o1,"inconclusive [activator, single point]",–
COc1ccc(-c2nnc(SCC(=O)OC3CCCCC3)o2)cc1OC,inactive,–
O=C(O)c1ccc2c(c1)C1C=CCC1C(c1cc3c(cc1Br)OCO3)N2 (stereo unspecified),inactive,–
Nc1ccc(C(=O)OCCCc2nc3ccccc3[nH]2)cc1,inactive,–
Cc1ccc(CNc2ccc(N3CCOCC3)cc2)s1,inactive,–
C=CCn1c(SCC(=O)CC(=O)OCC)nc2cc(C(=O)N3CCC(C(N)=O)CC3)ccc2c1=O,"inconclusive [inhibitor, single point]",–
C#CCOCCOCCOCCNc1nc(N2CCN(C(=O)CCCCCCCCCCNC(=O)[C@H]([C@@H](C)CC)n3cc(CCCCN=C(N)N)nn3)CC2)nc(N2CCN(C(=O)CCCCCCCCCCNC(=O)[C@H](CCCN=C(N)N)n3cc(C[C@@H](C)CC)nn3)CC2)n1,active: 8.91 µM,–
Cc1cc(NC(=O)c2ccc(Cl)cc2)no1,inactive,–
Cn1c(SCC(=O)CC(=O)Nc2ccccc2)nnc1-c1ccc(O)cc1,active: 14.1 µM,–
CCOC(=O)CN1C(=O)C(Sc2n[nH]c(-c3ccc(O)cc3)n2)CCc2ccccc21 (stereo unspecified),"inconclusive [inhibitor, partial curve]",–
Cc1nn(-c2ccc(Cl)c(Cl)c2Cl)c(=O)c2ccccc12,inactive,–
CN(Cc1ccccc1)c1nc(CN2CCOCC2)nc2scc(-c3ccccc3)c12,"inconclusive [inhibitor, single point]",–
CCc1nc2c(s1)CCc1onc(-c3ccc(Cl)cc3)c1-2,"inconclusive [activator, single point]",–
CC1=Nn2c(nnc2-c2cc(-c3ccccc3)n[nH]2)SC1,"inconclusive [inhibitor, single point]",–

Compound,Potency,"activity change, negative = inhibition"
CCN(CC)CCN(C(=O)/C=C/c1cccs1)c1nc2ccc(F)cc2s1,"inconclusive [inhibitor, single point]",–
COc1cc(CC(=O)OCC(=O)Nc2sccc2C(N)=O)cc(OC)c1OC,inactive,–
COC(=O)N[C@@H](c1cccc(F)c1)C(C(C)=O)C(=O)OC (stereo partly specified),inactive,–
C[C@]12C[C@H](O)CC(CO)(CO)C1[C@H](O)C[C@@]13CC4[C@@H](CC12)[C@@]4(C)C3 (stereo partly specified),inactive,–
O=C(CNC(=O)OCc1ccccc1)Oc1ccc2ccc(=O)oc2c1,"inconclusive [activator, partial curve]",–
COc1ccc(-c2cn3cccnc3n2)cc1NC(=O)C(C)Oc1ccccc1 (stereo unspecified),"inconclusive [activator, partial curve]",–
CC(C)CC(=O)NC(c1ccccc1)c1c(O)ccc2ccccc12 (stereo unspecified),"inconclusive [activator, single point]",–
Cc1ccc(-n2ncc3c(=O)n(CC(=O)N(C)C)cnc32)cc1C,inactive,–
Cc1ccccc1C(=O)NNC(=O)/C=C\C(=O)O,inactive,–
CCn1cc2nc(SCC(=O)Nc3ccccc3F)n(Cc3ccccc3)c(=O)c2n1,"inconclusive [activator, partial curve]",–
CC(C(=O)NC1C=CS(=O)(=O)C1)N1C(=O)/C(=C\c2ccccc2)SC1=S (stereo unspecified),"inconclusive [inhibitor, partial curve]",–
CCCCCn1c(=O)[nH]c2cc(C(=O)NCCN3CCCCC3C)ccc2c1=O (stereo unspecified),"inconclusive [activator, full curve]",–
COc1ccc(C2=Nn3c(nnc3-c3ccccc3C)SC2)cc1,inactive,–
O=C(Nc1ccc2c(c1)N(S(=O)(=O)c1cccs1)CCC2)c1c(F)cccc1F,inactive,–
CCc1cccc(NC(=O)CCS(=O)(=O)c2ccc3c(c2)NC(=O)CO3)c1,"inconclusive [inhibitor, single point]",–
CCN(CC)c1ccc(C=C2C(=O)OC(c3ccccc3)OC2=O)cc1 (stereo unspecified),inactive,–
CN(C)S(=O)(=O)c1ccc(C(=O)Nc2nnc(Cc3ccccc3)s2)cc1,inactive,–
C[n+]1ccc(/C=C/c2c[nH]c3ccc(F)cc23)cc1,"inconclusive [inhibitor, partial curve]",–
C=CCn1c(O)c(N=NC(=S)Nc2cccc(OC)c2)c2ccccc21,"inconclusive [inhibitor, single point]",–
Cc1cc(=O)oc2cc(NC(=O)c3ccccc3OC(F)F)ccc12,"inconclusive [activator, partial curve]",–
O=C(NC(Cc1ccccc1)C(=O)N1CCCCCC1)c1ccccc1 (stereo unspecified),inactive,–
CC(=O)c1ccc(NC(=O)Nc2ccc(NS(=O)(=O)c3ccc(C)cc3)cc2)cc1,"inconclusive [activator, single point]",–
O=C1C=C(N2CCCCCC2)C(=O)N1c1ccc(Cl)cc1,"inconclusive [activator, partial curve]",–
O=C1CCCC2=C1C(c1ccc(O)c(O)c1)Nc1ccc3ncccc3c12 (stereo unspecified),inactive,–

Compound,Potency,"activity change, negative = inhibition"
CCSC1=NCCN1S(=O)(=O)c1ccc(NC(C)=O)cc1,"inconclusive [inhibitor, single point]",–
CCOC(=O)c1cc(-c2nnc(-c3ccc(Cl)cc3)o2)c(C)nc1C,inactive,–
COc1ccc(C(=O)c2oc3nc(C)cc(C)c3c2N)cc1,"inconclusive [activator, partial curve, poor fit]",–
COc1ccccc1C(=O)COC(=O)c1cc(S(=O)(=O)N2CCCCC2)ccc1N1CCOCC1,"inconclusive [activator, partial curve]",–
CCOc1ccccc1NC=C1C(=O)OC2(CCCCC2)OC1=O,"inconclusive [activator, partial curve]",–
N#Cc1c(C(F)(F)F)cc(-c2cccc(Cl)c2)[nH]c1=O,"inconclusive [activator, partial curve]",–
COc1ccc(Cn2c(=O)[nH]c3cc(C(=O)NCCCN4CCCC4)ccc3c2=O)cc1,–,inconclusive: 46.3% [activator]
COc1nc(SC)nc(Cl)c1Cc1ccc(OC(C)C)cc1,–,inconclusive: 31.2% [activator]
CC1(C)CC(=O)C2=C(C1)N1C(=C(C#N)C2c2ccccc2Cl)N=C(N)c2ccccc21 (stereo unspecified),"inconclusive [activator, partial curve]",–
Cc1ccc(-c2noc(CN(C(=O)Cc3ccccc3)C(C)C)n2)cc1,"inconclusive [activator, single point]",–
COc1ccccc1C1CCN(Cc2ccc(Cl)c(Cl)c2)CC1,inactive,–
COCCNc1oc(/C=C/c2ccccc2OC)nc1S(=O)(=O)c1ccccc1,"inconclusive [activator, single point]",–
CCN(c1cccc(C)c1)S(=O)(=O)c1ccc2c(c1)CCN2C(C)=O,"inconclusive [activator, partial curve, poor fit]",–
C(=N\N1CCOCC1)/c1cccs1,"inconclusive [inhibitor, single point]",–
CC(=O)c1cccc(NC(=S)NC(=O)c2cncc(Br)c2)c1,inactive,–
Cc1ccc(C(=O)c2oc3ccccc3c2N)cc1,–,inconclusive: 38% [activator]
O=C(NCCN1CCOCC1)C1CCC(=O)N1C1CCCCC1 (stereo unspecified),"inconclusive [activator, partial curve]",–
Cc1ccc(-c2nc(-c3cccnc3)sc2CC(=O)Nc2ccc3nc(C)sc3c2)cc1,–,inconclusive: 30.3% [activator]
CCn1cc([N+](=O)[O-])c(C(=O)N2N=C(c3ccc(OC)cc3OC)CC2c2ccccc2O)n1 (stereo unspecified),"inconclusive [inhibitor, full curve, poor fit]",–
Cc1ccc(NC(=O)Nc2ccc3c(c2)nnn3C)cc1C,inactive,–
CC(C)(C)OC(=O)N1CSC[C@H]1C(=O)NC[C@H](CC(=O)O)c1ccc(Cl)cc1,inactive,–
COc1ccccc1C(=O)O/N=C(/C)c1ccc(N2C(=O)C3CCCCC3C2=O)cc1 (stereo unspecified),"inconclusive [inhibitor, single point]",–
C/C=C(/C)C(=O)O[C@@H]1[C@H](OC(=O)C=C(C)C)c2c(ccc3ccc(=O)oc23)OC1(C)C,"inconclusive [activator, partial curve]",–
